Experimental data published in the supplement of paper PMC4967469.
IC50 is the fitted dose that halves viability relative to control wells, and lower means more sensitive; fits outside the tested doses are given as limits. The AUC spans the tested range (256-fold, ending at the top dose) of the same fit; the more sensitive the line, the further below 1. The top dose, if marked as inferred, comes from the curve model; the source does not state it.

compound: COc1ncc(-c2ccc3nccc(-c4ccnnc4)c3c2)cc1NS(=O)(=O)c1ccc(F)cc1F [GSK2126458]; assay: Viability of human cancer cell lines after 72 h of drug (GDSC screen); conditions: top dose inferred
Experimental: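 Human cancer cell lines in 384-well plates, medium with 10% serum, drug for 72 h over a 256-fold dose range (nine 2-fold or five 4-fold steps up to the top dose). Adherent lines were fixed and stained with the nucleic acid dye Syto60, suspension lines read with resazurin; signal relative to control wells, capped at 0 and 100%. One two-parameter sigmoid per drug and line, fitted in a mixed model over all curves with the slope shared within a line.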

Row | Cell Line | AUC | IC50
1 | LU-65 (large cell lung carcinoma, suspension, top dose 0.128 µM) | 0.535 | 0.0101 µM
2 | LU-99A (large cell lung carcinoma, adherent, top dose 0.128 µM) | 0.924 | > 0.128 µM
3 | LU-134-A (small cell lung carcinoma, suspension, top dose 0.128 µM) | 0.81 | 0.0726 µM
4 | LU-135 (small cell lung carcinoma, suspension, top dose 0.128 µM) | 0.647 | 0.0189 µM
5 | LU-139 (small cell lung carcinoma, suspension, top dose 0.128 µM) | 0.776 | 0.0662 µM
6 | LU-165 (small cell lung carcinoma, suspension, top dose 0.128 µM) | 0.844 | 0.109 µM
7 | LXF-289 (lung adenocarcinoma, adherent, top dose 0.128 µM) | 0.861 | 0.105 µM
8 | LoVo (large intestine, adherent, top dose 0.128 µM) | 0.899 | > 0.128 µM
9 | M14 (melanoma, adherent, top dose 0.128 µM) | 0.987 | > 0.128 µM
10 | M059J (glioma, adherent, top dose 0.128 µM) | 0.74 | 0.0415 µM
11 | MC116 (B-cell lymphoma, suspension, top dose 0.128 µM) | 0.431 | 0.00544 µM
12 | MC-CAR (haematopoietic neoplasm, suspension, top dose 0.128 µM) | 0.404 | 0.0045 µM
13 | MC-IXC (neuroblastoma, adherent, top dose 0.128 µM) | 0.794 | 0.0425 µM
14 | MCF7 (breast, adherent, top dose 0.128 µM) | 0.986 | > 0.128 µM
15 | MDA-MB-157 (breast, adherent, top dose 0.128 µM) | 0.952 | > 0.128 µM
16 | MDA-MB-175-VII (breast, adherent, top dose 0.128 µM) | 0.538 | 0.0103 µM
17 | MDA-MB-231 (breast, adherent, top dose 0.128 µM) | 0.924 | > 0.128 µM
18 | MDA-MB-330 (breast, adherent, top dose 0.128 µM) | 0.637 | 0.0203 µM
19 | MDA-MB-361 (breast, adherent, top dose 0.128 µM) | 0.423 | 0.00492 µM
20 | MDA-MB-415 (breast, adherent, top dose 0.128 µM) | 0.894 | > 0.128 µM

Row | Cell Line | AUC | IC50
21 | MDA-MB-436 (breast, adherent, top dose 0.128 µM) | 0.943 | > 0.128 µM
22 | MDA-MB-453 (breast, adherent, top dose 1.024 µM) | 0.157 | 0.00485 µM
23 | MDA-MB-468 (breast, adherent, top dose 0.128 µM) | 0.663 | 0.0222 µM
24 | MDST8 (large intestine, adherent, top dose 0.128 µM) | 0.731 | 0.0362 µM
25 | ME-1 (acute myeloid leukaemia, suspension, top dose 0.128 µM) | 0.908 | > 0.128 µM
26 | ME-180 (cervix, adherent, top dose 0.128 µM) | 0.464 | 0.00634 µM
27 | MEG-01 (chronic myeloid leukaemia, suspension, top dose 0.128 µM) | 0.833 | 0.0759 µM
28 | MEL-JUSO (melanoma, adherent, top dose 0.128 µM) | 0.641 | 0.0206 µM
29 | MES-SA (uterus, adherent, top dose 0.128 µM) | 0.904 | 0.127 µM
30 | MFE-280 (endometrium, adherent, top dose 0.128 µM) | 0.73 | 0.0438 µM
31 | MFE-296 (endometrium, adherent, top dose 0.128 µM) | 0.783 | 0.0582 µM
32 | MFE-319 (endometrium, adherent, top dose 0.128 µM) | 0.674 | 0.0241 µM
33 | MFH-ino (soft tissue, adherent, top dose 0.128 µM) | 0.839 | 0.11 µM
34 | MFM-223 (breast, adherent, top dose 0.128 µM) | 0.885 | > 0.128 µM
35 | MG-63 (osteosarcoma, adherent, top dose 0.128 µM) | 0.983 | > 0.128 µM
36 | MHH-ES-1 (Ewing sarcoma, adherent, top dose 0.128 µM) | 0.329 | 0.00269 µM
37 | MHH-NB-11 (neuroblastoma, adherent, top dose 0.128 µM) | 0.824 | 0.0863 µM
38 | MHH-PREB-1 (B-cell leukaemia, suspension, top dose 0.128 µM) | 0.637 | 0.0183 µM
39 | MIA-PaCa-2 (pancreas, adherent, top dose 0.128 µM) | 0.972 | > 0.128 µM
